Data reported in paper PMC4738305, “Metabolism and Disposition of Aditoprim in Swine, Broilers, Carp and Rats” (Scientific Reports, 2016).
Where “and” joins values, the source holds several entries; their conditions need not be identical. Identical values can stand only once. The source gives many values for each of these; only a part stands here.

Assay: Tissue distribution and elimination of total radioactivity (total residues) after oral ^3H-ADP for 7 d
Format: in vivo, swine
Method: (0.1 Ci/g) through oral gavage for 7 consecutive days. All the animals were housed on the basis of their group in the cages or aquaria throughout the whole study period. A group of animals was slaughtered through exsanguination under diethyl ether inhalation of anesthesia in the period of 6 h, 1, 3, 7, 14, and 21 d after the administration. The blood samples were immediately collected into the heparinized tubes and was centrifuged at 1920 × g at 4 °C for 10 min to obtain the plasma. The tissues from the heart, liver, spleen, lung, kidney, craw (broilers), stomach, intestine, fat, skin, muscle, thymus, pancreas, bile, bladder, hair (scale for carp), genital gland, adrenal glands, swim bladder (carp), brain, lymph, and bursa (broilers) were carefully excised and collected. The tissues were thoroughly rinsed with the deionized water to remove the residuary blood, blotted to dryness, and finally to perform the homogenization. In order to avoid cross-contamination the dissecting instruments were washed during the tissue procurements. The blank tissues were collected in order to provide control matrices. The total radioactivity levels in each sample were determined through LSC. The samples extracted from the plasma, bile, and tissues of the liver, kidney, muscle, and fat/skin were analyzed through LC/MS-IT-TOF and v. ARC radiometric detection for metabolite profiling.
Measurements of the total radioactivity in each sample were conducted by Packard Tri-Carb 2900 TR liquid scintillation counter (PerkinElmer Life and Analytical Sciences). The detection time was 10 min for two cycles. The scintillation counter data were automatically corrected for counting efficiency by instrument-stored quench curve which was drawn with a series of sealed quenched […] standards. The actual radioactivity of each sample was calculated by subtracting the background value form the mean radioactivity in two blank samples. All the samples were analyzed in duplicate if the sample size allowed this. If the results were differed by more than 10% from the mean value, the samples were reanalyzed. The samples with LSC counts less than 2-fold of the level of the running background were considered to contain insufficient radioactivity for reliable quantification.
Aliquots of liquid samples (urine, plasma, bile and raised water, 200 μL) were mixed with 10 mL of Ultima Gold^TM scintillation fluid for the direct analysis by LSC. Aliquots of solid samples (feces and tissues, 200 mg) were digested overnight with 2 mL tissue solubilizer at 50 °C in a shaking water bath, followed by adding 200 μL of 0.1 mol/L EDTA-Na and 200 μL of 30% H2O2, and was bathed at 50 °C for 2 h to bleach. The obtained transparent liquid were mixed with 10 mL of scintillation fluid and finally were counted by LSC. The digestion efficiency was determined by using the blank samples spiked with ^3 H standard for digestion, and the measured radioactivity content in the digested samples were adjusted by using the digestion efficiency values.
The concentrations of ADP and/or its metabolites were analyzed by using the following equation: C = L/(2.22 × 10^9 × RM), where C is the concentration of ADP or/and its metabolites (mg/kg), L is the LSC count (dpm), R is the specific activity of the administered dose (0.1 Ci/g), and M is the weight or volume of samples (kg or L). The results are expressed as mean ± SD. The elimination kinetics of terminal phase for ADP and its metabolites were conducted by using the WinNonlin linear regression program (Pharsight corporation, Statistical consultants, Inc., Kentucky, USA).

SMILES: [3H]c1c(Cc2cnc(N)nc2N)cc(OC)c(N(C)C)c1OC [^3H-ADP]
- Concentrations of total residues (swine Adrenal, 0.25 d after 5 mg/kg b. w. for 7 days): 48.60 ± 3.20 mg/kg
- Concentrations of total residues (swine Adrenal, 1 d after 5 mg/kg b. w. for 7 days): 13.85 ± 7.65 mg/kg
- Concentrations of total residues (swine Adrenal, 3 d after 5 mg/kg b. w. for 7 days): 1.33 ± 0.13 mg/kg
- Concentrations of total residues (swine Adrenal, 7 d after 5 mg/kg b. w. for 7 days): 0.29 ± 0.05 mg/kg
- Concentrations of total residues (swine Adrenal, 14 d after 5 mg/kg b. w. for 7 days): 0.06 ± 0.00 mg/kg
- Concentrations of total residues (swine Bile, 0.25 d after 5 mg/kg b. w. for 7 days): 66.0 ± 30.1 mg/kg and 66.00 ± 30.11 mg/kg
- Concentrations of total residues (swine Bile, 1 d after 5 mg/kg b. w. for 7 days): 19.60 ± 10.41 mg/kg
- Concentrations of total residues (swine Bile, 3 d after 5 mg/kg b. w. for 7 days): 1.60 ± 0.10 mg/kg
- Concentrations of total residues (swine Bile, 7 d after 5 mg/kg b. w. for 7 days): 0.22 ± 0.01 mg/kg
- Concentrations of total residues (swine Bladder, 0.25 d after 5 mg/kg b. w. for 7 days): 5.38 ± 0.54 mg/kg
- Concentrations of total residues (swine Bladder, 1 d after 5 mg/kg b. w. for 7 days): 2.31 ± 1.39 mg/kg
- Concentrations of total residues (swine Bladder, 3 d after 5 mg/kg b. w. for 7 days): 0.60 ± 0.18 mg/kg
- Concentrations of total residues (swine Bladder, 7 d after 5 mg/kg b. w. for 7 days): 0.11 ± 0.03 mg/kg
- Concentrations of total residues (swine Blood, 0.25 d after 5 mg/kg b. w. for 7 days): 2.21 ± 0.21 mg/kg
- Concentrations of total residues (swine Blood, 1 d after 5 mg/kg b. w. for 7 days): 1.57 ± 0.28 mg/kg
- Concentrations of total residues (swine Blood, 3 d after 5 mg/kg b. w. for 7 days): 0.62 ± 0.02 mg/kg
- Concentrations of total residues (swine Blood, 7 d after 5 mg/kg b. w. for 7 days): 0.09 ± 0.02 mg/kg
- Concentrations of total residues (swine Clothing hair, 0.25 d after 5 mg/kg b. w. for 7 days): 0.33 ± 0.16 mg/kg
- Concentrations of total residues (swine Clothing hair, 1 d after 5 mg/kg b. w. for 7 days): 0.32 ± 0.14 mg/kg
- Concentrations of total residues (swine Clothing hair, 3 d after 5 mg/kg b. w. for 7 days): 0.30 ± 0.11 mg/kg
- Concentrations of total residues (swine Clothing hair, 7 d after 5 mg/kg b. w. for 7 days): 0.13 ± 0.01 mg/kg
- Concentrations of total residues (swine Clothing hair, 14 d after 5 mg/kg b. w. for 7 days): 0.05 ± 0.01 mg/kg
- Concentrations of total residues (swine Fat, 0.25 d after 5 mg/kg b. w. for 7 days): 1.63 ± 0.38 mg/kg
- Concentrations of total residues (swine Fat, 1 d after 5 mg/kg b. w. for 7 days): 0.57 ± 0.11 mg/kg
- Concentrations of total residues (swine Fat, 3 d after 5 mg/kg b. w. for 7 days): 0.35 ± 0.04 mg/kg
- Concentrations of total residues (swine Fat, 7 d after 5 mg/kg b. w. for 7 days): 0.17 ± 0.05 mg/kg
- Concentrations of total residues (swine Heart, 0.25 d after 5 mg/kg b. w. for 7 days): 3.53 ± 0.16 mg/kg
- Concentrations of total residues (swine Heart, 1 d after 5 mg/kg b. w. for 7 days): 1.51 ± 0.63 mg/kg
- Concentrations of total residues (swine Heart, 3 d after 5 mg/kg b. w. for 7 days): 0.48 ± 0.04 mg/kg
- Concentrations of total residues (swine Heart, 7 d after 5 mg/kg b. w. for 7 days): 0.15 ± 0.04 mg/kg
- Concentrations of total residues (swine Heart, 14 d after 5 mg/kg b. w. for 7 days): 0.02 ± 0.00 mg/kg
- Concentrations of total residues (swine Kidney, 0.25 d after 5 mg/kg b. w. for 7 days): 46.83 ± 5.24 mg/kg
- Concentrations of total residues (swine Kidney, 1 d after 5 mg/kg b. w. for 7 days): 10.93 ± 5.42 mg/kg
- Concentrations of total residues (swine Kidney, 3 d after 5 mg/kg b. w. for 7 days): 1.26 ± 0.10 mg/kg
- Concentrations of total residues (swine Kidney, 7 d after 5 mg/kg b. w. for 7 days): 0.38 ± 0.01 mg/kg
- Concentrations of total residues (swine Kidney, 14 d after 5 mg/kg b. w. for 7 days): 0.12 ± 0.01 mg/kg
- Concentrations of total residues (swine Large Intestine, 0.25 d after 5 mg/kg b. w. for 7 days): 6.40 ± 1.26 mg/kg
- Concentrations of total residues (swine Large Intestine, 1 d after 5 mg/kg b. w. for 7 days): 2.16 ± 1.15 mg/kg
- Concentrations of total residues (swine Large Intestine, 3 d after 5 mg/kg b. w. for 7 days): 0.28 ± 0.03 mg/kg
- Concentrations of total residues (swine Large Intestine, 7 d after 5 mg/kg b. w. for 7 days): 0.10 ± 0.03 mg/kg
- Concentrations of total residues (swine Liver, 0.25 d after 5 mg/kg b. w. for 7 days): 21.65 ± 2.75 mg/kg
- Concentrations of total residues (swine Liver, 3 d after 5 mg/kg b. w. for 7 days): 2.37 ± 0.17 mg/kg
- Concentrations of total residues (swine Liver, 7 d after 5 mg/kg b. w. for 7 days): 0.86 ± 0.15 mg/kg
- Concentrations of total residues (swine Liver, 14 d after 5 mg/kg b. w. for 7 days): 0.37 ± 0.03 mg/kg
- Concentrations of total residues (swine Lung, 0.25 d after 5 mg/kg b. w. for 7 days): 36.92 ± 3.38 mg/kg
- Concentrations of total residues (swine Lung, 1 d after 5 mg/kg b. w. for 7 days): 9.63 ± 4.57 mg/kg
- Concentrations of total residues (swine Lung, 3 d after 5 mg/kg b. w. for 7 days): 0.89 ± 0.03 mg/kg
- Concentrations of total residues (swine Lung, 7 d after 5 mg/kg b. w. for 7 days): 0.23 ± 0.05 mg/kg
- Concentrations of total residues (swine Lung, 14 d after 5 mg/kg b. w. for 7 days): 0.04 ± 0.00 mg/kg
- Concentrations of total residues (swine Lymph, 0.25 d after 5 mg/kg b. w. for 7 days): 16.96 ± 0.33 mg/kg
- Concentrations of total residues (swine Lymph, 1 d after 5 mg/kg b. w. for 7 days): 4.74 ± 2.60 mg/kg
- Concentrations of total residues (swine Lymph, 3 d after 5 mg/kg b. w. for 7 days): 0.84 ± 0.10 mg/kg
- Concentrations of total residues (swine Lymph, 7 d after 5 mg/kg b. w. for 7 days): 0.25 ± 0.04 mg/kg
- Concentrations of total residues (swine Muscle, 0.25 d after 5 mg/kg b. w. for 7 days): 2.69 ± 0.27 mg/kg
- Concentrations of total residues (swine Muscle, 1 d after 5 mg/kg b. w. for 7 days): 1.10 ± 0.47 mg/kg
- Concentrations of total residues (swine Muscle, 3 d after 5 mg/kg b. w. for 7 days): 0.43 ± 0.01 mg/kg
- Concentrations of total residues (swine Muscle, 7 d after 5 mg/kg b. w. for 7 days): 0.09 ± 0.02 mg/kg
- Concentrations of total residues (swine Pancreas, 0.25 d after 5 mg/kg b. w. for 7 days): 16.20 ± 2.32 mg/kg
- Concentrations of total residues (swine Pancreas, 1 d after 5 mg/kg b. w. for 7 days): 5.06 ± 2.61 mg/kg
- Concentrations of total residues (swine Pancreas, 3 d after 5 mg/kg b. w. for 7 days): 0.74 ± 0.05 mg/kg
- Concentrations of total residues (swine Pancreas, 7 d after 5 mg/kg b. w. for 7 days): 0.24 ± 0.07 mg/kg
- Concentrations of total residues (swine Pancreas, 14 d after 5 mg/kg b. w. for 7 days): 0.04 ± 0.00 mg/kg
- Concentrations of total residues (swine Skin, 0.25 d after 5 mg/kg b. w. for 7 days): 3.77 ± 0.75 mg/kg
- Concentrations of total residues (swine Skin, 1 d after 5 mg/kg b. w. for 7 days): 1.89 ± 0.46 mg/kg
- Concentrations of total residues (swine Skin, 3 d after 5 mg/kg b. w. for 7 days): 0.63 ± 0.39 mg/kg
- Concentrations of total residues (swine Skin, 7 d after 5 mg/kg b. w. for 7 days): 0.44 ± 0.10 mg/kg
- Concentrations of total residues (swine Skin, 14 d after 5 mg/kg b. w. for 7 days): 0.04 ± 0.01 mg/kg
- Concentrations of total residues (swine Small Intestine, 0.25 d after 5 mg/kg b. w. for 7 days): 4.53 ± 1.40 mg/kg
- Concentrations of total residues (swine Small Intestine, 1 d after 5 mg/kg b. w. for 7 days): 1.94 ± 0.63 mg/kg
- Concentrations of total residues (swine Small Intestine, 3 d after 5 mg/kg b. w. for 7 days): 0.26 ± 0.02 mg/kg
- Concentrations of total residues (swine Small Intestine, 7 d after 5 mg/kg b. w. for 7 days): 0.06 ± 0.03 mg/kg
- Concentrations of total residues (swine Spleen, 0.25 d after 5 mg/kg b. w. for 7 days): 25.40 ± 2.91 mg/kg
- Concentrations of total residues (swine Spleen, 3 d after 5 mg/kg b. w. for 7 days): 0.91 ± 0.09 mg/kg
- Concentrations of total residues (swine Spleen, 7 d after 5 mg/kg b. w. for 7 days): 0.31 ± 0.01 mg/kg
- Concentrations of total residues (swine Spleen, 14 d after 5 mg/kg b. w. for 7 days): 0.09 ± 0.01 mg/kg
- Concentrations of total residues (swine Stomach, 0.25 d after 5 mg/kg b. w. for 7 days): 15.32 ± 5.59 mg/kg
- Concentrations of total residues (swine Stomach, 1 d after 5 mg/kg b. w. for 7 days): 4.00 ± 2.18 mg/kg
- Concentrations of total residues (swine Stomach, 3 d after 5 mg/kg b. w. for 7 days): 0.68 ± 0.16 mg/kg
- Concentrations of total residues (swine Stomach, 7 d after 5 mg/kg b. w. for 7 days): 0.15 ± 0.03 mg/kg
- Concentrations of total residues (swine Thymus, 0.25 d after 5 mg/kg b. w. for 7 days): 11.65 ± 0.31 mg/kg
- Concentrations of total residues (swine Thymus, 1 d after 5 mg/kg b. w. for 7 days): 3.02 ± 1.54 mg/kg
- Concentrations of total residues (swine Thymus, 3 d after 5 mg/kg b. w. for 7 days): 0.73 ± 0.20 mg/kg
- Concentrations of total residues (swine Thymus, 7 d after 5 mg/kg b. w. for 7 days): 0.29 ± 0.06 mg/kg
